Data from ChEMBL document CHEMBL4888484, “Replenishing the malaria drug discovery pipeline: Screening and hit evaluation of the MMV Hit Generation Library 1 (HGL1) against asexual blood stage Plasmodium falciparum ,using a nano luciferase reporter read-out” (2022).
The campaign covered roughly 150,000 compounds. About 540 (0.36%) showed an effect of 50% or more. The list shows a part of the results.

Each compound was assayed on Plasmodium falciparum (assay: Primary screen in NF54 nanoGlo assay, in single point, at 2uM, 72h; a lower Z score goes with more inhibition). Details: timepoint 72 hour.
Type: functional, Erythrocyte
In the case of O=C(NCCc1ccoc1)C(=O)NCC(F)(F)F, the “% Inhibition” value was -7% and the Z score was 1.11.
NC(=O)c1cc(-c2cnc3ccccc3c2)cs1 was tested, and the “% Inhibition” value was -5% and the Z score was 0.68.
In the case of Cc1ccc(S(=O)(=O)NCCc2nc(-c3ccc(-c4csc(C)n4)cc3)no2)cc1, the “% Inhibition” value was -18% and the Z score was 1.8.
In the case of C[C@H]1CN(C(=O)Nc2cccc(-c3cscn3)c2)CCCO1, the “% Inhibition” value was -13% and the Z score was 1.91.
CN(Cc1ccccn1)c1ccnc2cc(F)cnc12 was tested, and the “% Inhibition” value was 5% and the Z score was -0.61.
With CCCn1nc(C)cc1CN(C)C(=O)[C@@H]1CC2(CN(Cc3ccccc3)C2)CN1C the “% Inhibition” value was -6% and the Z score was 0.69.
CCCN(Cc1c(C)nn(-c2ccccc2)c1Oc1ccc(Cl)cc1)C(=O)c1cccc(F)c1 was tested, and the “% Inhibition” value was -9% and the Z score was 1.27.
With COCC(C)(C)NC(=O)CCc1ccc(N(C)C)cc1 the “% Inhibition” value was 1% and the Z score was -0.2.
In the case of COCCCN1C(=O)CN(S(=O)(=O)c2ccccc2)C[C@@]1(C)C(=O)NCCC(C)C, the “% Inhibition” value was 1% and the Z score was -0.14.
O=C(NCCCn1cncn1)NCC1(c2ccccc2)CC1 was tested, and the “% Inhibition” value was -2% and the Z score was 0.2.
In the case of Cc1ccc(C2(c3ccc(C)cc3)O[C@@H](c3ccccc3Cl)Nc3ccccc32)cc1, the “% Inhibition” value was -3% and the Z score was 0.42.
COc1ccc2c(c1)CCc1c(C(=O)Nc3cccc(CCc4nc5ccccc5[nH]4)c3)n[nH]c1-2 was tested, and the “% Inhibition” value was 3% and the Z score was -0.3.
N#CC1(C#N)CC(C(=O)c2ccccc2)C(c2ccccc2)C(C(=O)c2ccccc2)C1 (configuration not stated) was tested, and the “% Inhibition” value was 7% and the Z score was -0.86.
For Cn1nccc1CNC(=O)c1ccccc1COc1ccc(F)cc1F, the “% Inhibition” value was -8% and the Z score was 1.07.
For Oc1ccccc1-c1cc(-c2ccccc2)nn1Cc1ccc(Cl)cc1, the “% Inhibition” value was 8% and the Z score was -0.85.
With O=C(N[C@@H](Cc1ccccc1)c1nc(-c2ccc3c(c2)OCO3)no1)c1cccs1 the “% Inhibition” value was 3% and the Z score was -0.36.
With Nc1cc(Cl)c(OC(F)F)c(Cl)c1 the “% Inhibition” value was -10% and the Z score was 0.89.
O=C(NC(c1ccccn1)[C@H]1C[C@@H](O)C1)c1coc2ccccc12 (some centres not stated) was tested, and the “% Inhibition” value was -3% and the Z score was 0.63.
With CC(C)N(Cc1cccc(Cl)c1)C(=O)CNC(=O)Cn1cncn1 the “% Inhibition” value was -6% and the Z score was 0.52.
With Nc1ncnc2c1[C@@H](c1ccc(Cl)cc1)c1c(ccc3ccccc13)O2 the “% Inhibition” value was -5% and the Z score was 0.65.
For CC(C)(C)n1nc(CC(N)=O)nc1-c1cccc(N2CCNC2=O)c1, the “% Inhibition” value was 8% and the Z score was -1.24.
For NC(=O)CCC1S(=O)(=O)CC(c2ccccc2)CS1(=O)=O (configuration not stated), the “% Inhibition” value was -17% and the Z score was 2.33.
For Cc1ccc(CCC(=O)N2C[C@@H](CN3CCN(C)CC3)[C@@H](CO)C2)cc1C, the “% Inhibition” value was -4% and the Z score was 0.73.
For O=C(NCc1[nH]nc2c1CCCC2)[C@H]1CCC(F)(F)C1, the “% Inhibition” value was -5% and the Z score was 0.57.
In the case of CN(Cc1cc(C[C@@H]2C[C@H](NS(C)(=O)=O)C2(C)C)no1)c1ccccc1, the “% Inhibition” value was 29% and the Z score was -3.29.
With Cc1cc(NC(=O)N2CC[C@H](Oc3ccccc3Cl)C2)no1 the “% Inhibition” value was -9% and the Z score was 1.45.
For O=C(NCCOCC(F)(F)F)[C@@H]1C[C@@H]1c1nc2cccnc2[nH]1, the “% Inhibition” value was -8% and the Z score was 1.57.
In the case of COC(=O)[C@@H](c1cc(F)c(F)c(F)c1)N(C)CCN1CCCC1=O, the “% Inhibition” value was 1% and the Z score was -0.15.
With Cc1cc(O[C@H]2CCN(C(=O)c3ccc(S(=O)(=O)N4CCOCC4)cc3)C2)nc(C)n1 the “% Inhibition” value was 13% and the Z score was -2.
CCCc1cc(C(=O)N2CC[C@@H]3OCc4cccc(c4)Oc4cccc(c4)CC(=O)N(CC)CC(=O)N[C@H]3C2)[nH]n1 was tested, and the “% Inhibition” value was -17% and the Z score was 3.18.
For Cc1ccc(Cc2ccccc2C(=O)N2CCC3(CC2)[C@H](O)C[C@@H]3O)cc1F, the “% Inhibition” value was 2% and the Z score was -0.36.
For O[C@@H]1C[C@H](O)C12CCN(c1nccc(C(F)(F)F)n1)CC2, the “% Inhibition” value was -7% and the Z score was 1.47.
With Cc1ccc(-n2nc3c([n+]2[O-])CCc2c-3no[n+]2[O-])cc1 the “% Inhibition” value was -2% and the Z score was 0.3.
In the case of CN(C)S(=O)(=O)c1ccc(C(=O)NCc2nc(-c3cnn(C)c3)no2)cc1, the “% Inhibition” value was -19% and the Z score was 2.39.
With CCc1cc(C(=O)Nc2nc3c(s2)CS(=O)(=O)CC3)n(C)n1 the “% Inhibition” value was 9% and the Z score was -1.68.
For COC(=O)CC(C)(C)CC(=O)Nc1cccc(-c2ncn(C)n2)c1, the “% Inhibition” value was -13% and the Z score was 1.79.
O=C(c1cnn(CCN2CCCCC2)c1)N1CC2CCC1C2 (configuration not stated) was tested, and the “% Inhibition” value was 1% and the Z score was -0.14.
With Cc1ccc(CC2CN(C(=O)NCCc3cccc(C(F)(F)F)n3)C2)cc1 the “% Inhibition” value was 19% and the Z score was -2.36.
For COc1ccc([C@@H]2CCCN2C(=O)Cn2ccccc2=O)cc1OC, the “% Inhibition” value was -2% and the Z score was 0.15.
With Cn1cc(S(=O)(=O)N2CCc3sc(Cl)cc3C2)cn1 the “% Inhibition” value was -10% and the Z score was 1.17.
Cc1nnc(-c2ccccc2NC(=O)c2ccc3ccccc3n2)o1 was tested, and the “% Inhibition” value was -8% and the Z score was 1.03.
